These results are taken from the supplement of paper PMC6609913.

The structures appear in SMILES notation. Counter-ions that a name gives are not always drawn. ± gives the standard deviation of the averaged measurements. Whole data set: some 1,300 compounds, median “normalised cell viability” near 1, cut for the lowest 2% near 0.15. Some of the results follow.

The test system of this test is V-C8 + BRCA2 (BRCA2-proficient hamster cells). The experiment in a line: normalised cell viability (fraction of plate median); higher = more viable cells (less toxic). The following applies: 5 µM. A digest of the protocol:
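In two screens, library drugs at 5 μM were given for 3 days (screen 1) or 6 days (screen 2) to hamster V-C8 cells without BRCA2 and V-C8 cells with BRCA2 restored, seeded 24 h earlier in 96-well plates. A resazurin assay gave the cell viability readout, expressed as modified robust per cent of sample against the plate median, with triplicate wells averaged.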

As to `Cc1cccc(CN2CCN(C(c3ccccc3)c3ccc(Cl)cc3)CC2)c1` (stereo unspecified) [Meclozine dihydrochloride], the normalised cell viability by setting is: (treatment time: 3 days) 1.12 ± 0.075; (treatment time: 6 days) 1.07 ± 0.082.
In the same order, the values of `COc1ccccc1O` [Guaiacol] are 1.01 ± 0.038 and 1.03 ± 0.035.
In the same order, the values of `CCCCC(C)(O)C/C=C/[C@H]1[C@H](O)CC(=O)[C@@H]1CCCCCCC(=O)OC` (mixture of isomers) [Misoprostol] are 0.976 ± 0.09 and 1.03 ± 0.024.
In the case of `CNCCC(Oc1ccccc1OC)c1ccccc1` (stereo unspecified) [Nisoxetine hydrochloride], the normalised cell viability is 1.04 ± 0.043 (treatment time: 3 days) and 1.09 ± 0.049 (treatment time: 6 days).
In the same order, the values of `CN(C)[C@@H]1C(O)=C(C(N)=O)C(=O)[C@@]2(O)C(O)=C3C(=O)c4c(O)ccc(Cl)c4[C@@](C)(O)[C@H]3C[C@@H]12` [Chlortetracycline hydrochloride] are 1.07 ± 0.042 and 0.9947 ± 0.0037.
In the same order, the values of `CC(=O)N(CC(C)C(=O)O)c1c(I)cc(I)c(N)c1I` (stereo unspecified) [Iocetamic acid] are 1.04 ± 0.024 and 0.986 ± 0.02.
In the same order, the values of `COc1cc(C(=O)NC2CCCNC2)cc(OC)c1OC` (stereo unspecified) [Troxipide] are 0.989 ± 0.027 and 0.983 ± 0.072.
Turning to `C[C@]12CC[C@@H]3c4ccc(O)cc4CC[C@H]3[C@@H]1CCC2=O` [Estrone], the normalised cell viability is, setting by setting: (treatment time: 3 days) 0.964 ± 0.026; (treatment time: 6 days) 1.07 ± 0.038.
In the same order, the values of `CC1CS(=O)(=O)CCN1/N=C/c1ccc([N+](=O)[O-])o1` (stereo unspecified) [Nifurtimox] are 0.974 ± 0.035 and 0.927 ± 0.016.
In the same order, the values of `CN1CC2c3ccccc3Oc3ccc(Cl)cc3C2C1` (stereo unspecified) [Asenapine maleate] are 1.03 ± 0.032 and 1.04 ± 0.068.
In the same order, the values of `c1ccc2[nH]c(-c3cscn3)nc2c1` [Tiabendazole] are 1.05 ± 0.046 and 1 ± 0.019.
Take `CCCCCCCN(CC)CCCC(O)c1ccc(NS(C)(=O)=O)cc1` (stereo unspecified) [Ibutilide fumarate]: the normalised cell viability reads like this: (treatment time: 3 days) 1.06 ± 0.046; (treatment time: 6 days) 1.17 ± 0.35.
Turning to `COc1ccc(-c2cc(=O)c3c(O)cc(O[C@@H]4O[C@H](CO[C@@H]5O[C@@H](C)[C@H](O)[C@@H](O)[C@H]5O)[C@@H](O)[C@H](O)[C@H]4O)cc3o2)cc1O` [Diosmin], the normalised cell viability by setting is: (treatment time: 3 days) 1.09 ± 0.034; (treatment time: 6 days) 1.03 ± 0.033.
In the same order, the values of `CN(C)CCCO[C@@H]1[C@H]2OC(C)(C)O[C@H]2O[C@@H]1[C@H](O)CO` [Amiprilose hydrochloride] are 1.02 ± 0.031 and 1.04 ± 0.05.
In the same order, the values of `C[C@]12CC[C@@H]3c4ccc(O)cc4CC[C@H]3[C@@H]1C[C@@H](O)[C@@H]2O` [Estriol] are 1.12 ± 0.14 and 1.04 ± 0.067.
In the same order, the values of `CCc1cccc2c3c([nH]c12)C(CC)(CC(=O)O)OCC3` (stereo unspecified) [Etodolac] are 0.922 ± 0.034 and 1.04 ± 0.084.
With `Cc1noc(NS(=O)(=O)c2ccc(N)cc2)c1C` [Sulfisoxazole], the normalised cell viability (treatment time: 3 days) was 1.12 ± 0.11 and the normalised cell viability (treatment time: 6 days) was determined as 0.998 ± 0.045.
In the same order, the values of `CC[N+](CC)(CC)CCC(O)(c1ccccc1)C1CCCCC1` (stereo unspecified) [Tridihexethyl chloride] are 0.905 ± 0.044 and 1 ± 0.065.
In the same order, the values of `CC1=C(CC(=O)O)c2cc(F)ccc2/C1=C\c1ccc([S+](C)[O-])cc1` (stereo unspecified) [Sulindac] are 0.906 ± 0.042 and 0.972 ± 0.074.
For `CC(Oc1c(Cl)cccc1Cl)C1=NCCN1` (stereo unspecified) [Lofexidine], the normalised cell viability (treatment time: 3 days) is 0.953 ± 0.013 and the normalised cell viability (treatment time: 6 days) came out at 0.98 ± 0.012.
In the same order, the values of `CCOC(=O)[C@H](CCc1ccccc1)N[C@@H](C)C(=O)N1CCC[C@H]1C(=O)O` [Enalapril maleate] are 0.99 ± 0.066 and 0.91 ± 0.079.
In the same order, the values of `CO/N=C(\C(=O)N[C@@H]1C(=O)N2C(C(=O)O)=C(C[N+]3(C)CCCC3)CS[C@H]12)c1csc(N)n1` [Cefepime hydrochloride] are 0.933 ± 0.092 and 0.888 ± 0.098.
In the same order, the values of `CC(=O)Nc1ccc(O)cc1` [Acetaminophen] are 0.948 ± 0.0095 and 1.1 ± 0.014.
In the case of `COc1ccc2[nH]c([S+]([O-])Cc3ncc(C)c(OC)c3C)nc2c1` (stereo unspecified) [Omeprazole], the normalised cell viability runs as follows: (treatment time: 3 days) 0.971 ± 0.06; (treatment time: 6 days) 0.983 ± 0.12.
In the same order, the values of `Cc1cc(-n2c(=O)[nH]c(=O)n(C)c2=O)ccc1Oc1ccc(SC(F)(F)F)cc1` [Toltrazuril] are 1.07 ± 0.05 and 1.07 ± 0.069.
In the same order, the values of `Cc1ccccc1N1C(=O)c2cc(S(N)(=O)=O)c(Cl)cc2NC1C` (stereo unspecified) [Metolazone] are 1.18 ± 0.062 and 1.07 ± 0.065.
In the same order, the values of `OCCOCCN1CCN(C(c2ccccc2)c2ccc(Cl)cc2)CC1` (stereo unspecified) [Hydroxyzine dihydrochloride] are 1.14 ± 0.051 and 1.1 ± 0.087.
Regarding `C=CC1=C(C(=O)O)N2C(=O)[C@@H](NC(=O)/C(=N\OCC(=O)O)c3csc(N)n3)[C@H]2SC1` [Cefixime], the normalised cell viability (treatment time: 3 days) came out at 1.02 ± 0.036 and the normalised cell viability (treatment time: 6 days) came to 1.06 ± 0.042.
In the same order, the values of `Nc1cc(-c2ccncc2)c[nH]c1=O` [Amrinone] are 0.934 ± 0.072 and 0.851 ± 0.077.
In the same order, the values of `c1ccc2c(c1)CCCc1cc(NCCN3CCOCC3)nnc1-2` are 0.803 ± 0.038 and 0.87 ± 0.091.
In the same order, the values of `COc1ccc(C[C@@H]2c3cc(OC)c(OC)cc3CC[N@+]2(C)CCC(=O)OCCCCCOC(=O)CC[N@@+]2(C)CCc3cc(OC)c(OC)cc3[C@H]2Cc2ccc(OC)c(OC)c2)cc1OC` [Cisatracurium besylate] are 0.918 ± 0.088 and 0.916 ± 0.059.
Take `CC(N)C12CC3CC(CC(C3)C1)C2` (stereo unspecified) [Rimantadine Hydrochloride]: the normalised cell viability came to 1.05 ± 0.073 (treatment time: 3 days) and 1.022 ± 0.0099 (treatment time: 6 days).
In the same order, the values of `CCC(=O)OCC(=O)[C@@]1(OC(=O)CC)[C@H](C)C[C@H]2[C@H]3[C@H]([C@@H](O)C[C@@]21C)[C@@]1(C)C=CC(=O)C=C1C[C@H]3Cl` [Alclometasone dipropionate] are 0.932 ± 0.084 and 1.07 ± 0.048.
